Cell count data for 24 molecules are collected here from the supplement of paper PMC4604168 (melanoma cell lines).

Some of the results follow. Many values rest on one well or one pass, so single values are uncertain.
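Further: cells treated in 1,536-well plates, then fixed and DAPI-stained, with nuclei counted from automated high-throughput microscope images.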

The first assay deals with MEL-HO. Put plainly: cell count relative to DMSO control; melanoma cells; higher = more viable cells. To be noted: library dose: standard library concentration; 72 h.
Turning to `CC(=O)O[C@@]12CO[C@@H]1C[C@H](O)[C@@]1(C)C(=O)[C@H](O)C3=C(C)[C@@H](OC(=O)[C@H](O)[C@@H](NC(=O)OC(C)(C)C)c4ccccc4)C[C@@](O)([C@@H](OC(=O)c4ccccc4)[C@H]21)C3(C)C` [Docetaxel] + c1cc(-c2cnn3cc(-c4ccc(OCCN5CCCCC5)cc4)cnc23)ccn1 [Dorsomorphin] (first compound 0.0005 µM, partner dose 2 µM), the cell count was determined as 48.6%. On the same count and under the same terms, for `Nc1ncn([C@H]2C[C@H](O)[C@@H](CO)O2)c(=O)n1` [decitabine] + COC(=O)c1sccc1S(=O)(=O)Nc1ccc(Nc2ccccc2)cc1OC [GSK0660] (first compound 0.5 µM, partner dose 5 µM) the value was 88.6%.

`CO[C@H]1C[C@@H]2CC[C@@H](C)[C@@](O)(O2)C(=O)C(=O)N2CCCC[C@H]2C(=O)O[C@H]([C@H](C)C[C@@H]2CC[C@@H](OCCO)[C@H](OC)C2)CC(=O)[C@H](C)/C=C(\C)[C@@H](O)[C@@H](OC)C(=O)[C@H](C)C[C@H](C)/C=C/C=C/C=C/1C` [everolimus] + Clc1ccc(Nc2nnc(Cc3ccncc3)c3ccccc23)cc1 [vatalanib] (first compound 0.1 µM, partner dose 10 µM) gave a cell count of 38.7%. Still for that read-out and setting: the same measure for `Nc1ccn([C@@H]2O[C@H](CO)[C@@H](O)C2(F)F)c(=O)n1` [gemcitabine] + OCc1c[nH]c2ccccc12 [Indole-3-carbinol] (first compound 0.002 µM, partner dose 4 µM): 51%; for `Nc1ncn([C@H]2C[C@H](O)[C@@H](CO)O2)c(=O)n1` [decitabine] + O=C(Nc1ccccc1)c1cc([N+](=O)[O-])ccc1Cl [GW9662] (first compound 0.5 µM, partner dose 10 µM): 74%. On the same count and under the same terms, the same measure for `Nc1ccn([C@@H]2O[C@H](CO)[C@@H](O)C2(F)F)c(=O)n1` [gemcitabine] + NC(=O)Nc1cc(-c2cccc(F)c2)sc1C(=O)N[C@H]1CCCNC1 [AZD7762] (first compound 0.002 µM, partner dose 0.1 µM): 20.7%; for `Nc1nc(F)nc2c1ncn2[C@@H]1O[C@H](CO)[C@@H](O)[C@@H]1O` [fludarabine] + O=c1cc(-c2cccc3c2Sc2ccccc2S3)oc(N2CCOCC2)c1 [KU55933] (first compound 1 µM, partner dose 5 µM): 74.8%; for `CC(=O)O[C@@]12CO[C@@H]1C[C@H](O)[C@@]1(C)C(=O)[C@H](O)C3=C(C)[C@@H](OC(=O)[C@H](O)[C@@H](NC(=O)OC(C)(C)C)c4ccccc4)C[C@@](O)([C@@H](OC(=O)c4ccccc4)[C@H]21)C3(C)C` [Docetaxel] + CO[C@H]1C[C@@H]2CC[C@@H](C)[C@@](O)(O2)C(=O)C(=O)N2CCCC[C@H]2C(=O)O[C@H]([C@H](C)C[C@@H]2CC[C@@H](OCCO)[C@H](OC)C2)CC(=O)[C@H](C)/C=C(\C)[C@@H](O)[C@@H](OC)C(=O)[C@H](C)C[C@H](C)/C=C/C=C/C=C/1C [everolimus] (first compound 0.0005 µM, partner dose 0.1 µM): 43.2%. On the same count and under the same terms, for `CC(=O)O[C@@]12CO[C@@H]1C[C@H](O)[C@@]1(C)C(=O)[C@H](O)C3=C(C)[C@@H](OC(=O)[C@H](O)[C@@H](NC(=O)OC(C)(C)C)c4ccccc4)C[C@@](O)([C@@H](OC(=O)c4ccccc4)[C@H]21)C3(C)C` [Docetaxel] + O=C(CCCCCCC(=O)Nc1ccccc1)NO [vorinostat] (first compound 0.0005 µM, partner dose 0.4 µM) the value was 41.9%; for `Nc1ccn([C@@H]2O[C@H](CO)[C@@H](O)C2(F)F)c(=O)n1` [gemcitabine] + c1cc(-c2cnn3cc(-c4ccc(OCCN5CCCCC5)cc4)cnc23)ccn1 [Dorsomorphin] (first compound 0.002 µM, partner dose 2 µM), 59.3%.

A further assay relates to MZ2-MEL. The description is as above. Particulars: library dose: standard library concentration; 72 h.
Take `Nc1ncn([C@H]2C[C@H](O)[C@@H](CO)O2)c(=O)n1` [decitabine] + C#Cc1cccc(Nc2ncnc3cc(OCCOC)c(OCCOC)cc23)c1 [erlotinib] (first compound 0.5 µM, partner dose 4 µM): the cell count was 73.1%. The same measure, in the same setting: for `CC(=O)O[C@@]12CO[C@@H]1C[C@H](O)[C@@]1(C)C(=O)[C@H](O)C3=C(C)[C@@H](OC(=O)[C@H](O)[C@@H](NC(=O)OC(C)(C)C)c4ccccc4)C[C@@](O)([C@@H](OC(=O)c4ccccc4)[C@H]21)C3(C)C` [Docetaxel] + OCc1c[nH]c2ccccc12 [Indole-3-carbinol] (first compound 0.0005 µM, partner dose 4 µM) the value was 46%; for `CO[C@H]1C[C@@H]2CC[C@@H](C)[C@@](O)(O2)C(=O)C(=O)N2CCCC[C@H]2C(=O)O[C@H]([C@H](C)C[C@@H]2CC[C@@H](OCCO)[C@H](OC)C2)CC(=O)[C@H](C)/C=C(\C)[C@@H](O)[C@@H](OC)C(=O)[C@H](C)C[C@H](C)/C=C/C=C/C=C/1C` [everolimus] + COc1cc(Nc2ncc(F)c(Nc3ccc4c(n3)NC(=O)C(C)(C)O4)n2)cc(OC)c1OC [Tamatinib] (first compound 0.1 µM, partner dose 2 µM), 59.8%; for `Nc1ncn([C@H]2C[C@H](O)[C@@H](CO)O2)c(=O)n1` [decitabine] + CN(C)S(=O)(=O)c1ccc2c(c1)/C(=C/c1cc3c([nH]1)CCCC3)C(=O)N2 [SU6656] (first compound 0.5 µM, partner dose 2 µM), 83.9%. The same measure, in the same setting: for `CO[C@H]1C[C@@H]2CC[C@@H](C)[C@@](O)(O2)C(=O)C(=O)N2CCCC[C@H]2C(=O)O[C@H]([C@H](C)C[C@@H]2CC[C@@H](OCCO)[C@H](OC)C2)CC(=O)[C@H](C)/C=C(\C)[C@@H](O)[C@@H](OC)C(=O)[C@H](C)C[C@H](C)/C=C/C=C/C=C/1C` [everolimus] + COc1cc2ncnc(Nc3ccc(Oc4ccccc4)cc3)c2cc1OC [SrcI1] (first compound 0.1 µM, partner dose 10 µM) the value was 74.1%; for `CO[C@H]1C[C@@H]2CC[C@@H](C)[C@@](O)(O2)C(=O)C(=O)N2CCCC[C@H]2C(=O)O[C@H]([C@H](C)C[C@@H]2CC[C@@H](OCCO)[C@H](OC)C2)CC(=O)[C@H](C)/C=C(\C)[C@@H](O)[C@@H](OC)C(=O)[C@H](C)C[C@H](C)/C=C/C=C/C=C/1C` [everolimus] + COc1ccc(-c2ccc3c(N4CCOCC4)nc(N4C[C@@H](C)O[C@@H](C)C4)nc3n2)cc1CO [KU0063794] (first compound 0.1 µM, partner dose 0.1 µM), 44.6%; for `CC(=O)c1c(C)c2cnc(Nc3ccc(N4CCNCC4)cn3)nc2n(C2CCCC2)c1=O` [palbociclib] + COc1ccc(Cl)c(Nc2nc3ccccc3nc2NS(=O)(=O)c2cccc(NC(=O)C(C)(C)N)c2)c1 [XL147] (first compound 0.2 µM, partner dose 4 µM), 71.7%. Same read-out and setting: the same measure for `CC(=O)c1c(C)c2cnc(Nc3ccc(N4CCNCC4)cn3)nc2n(C2CCCC2)c1=O` [palbociclib] + COc1ccc2c(c1)CCC1C2CCC2(C)C(NCCCCCCN3C(=O)C=CC3=O)CCC12 [U73122] (first compound 0.2 µM, partner dose 2 µM): 101%. On to `Nc1ccn([C@@H]2O[C@H](CO)[C@@H](O)C2(F)F)c(=O)n1` [gemcitabine] + CO[C@@H]1[C@H](N(C)C(=O)c2ccccc2)C[C@H]2O[C@]1(C)n1c3ccccc3c3c4c(c5c6ccccc6n2c5c31)C(=O)NC4 [Midostaurin] (first compound 0.002 µM, partner dose 0.4 µM), for which the cell count was found to be 50.9%.

In turn, `Nc1ccn([C@@H]2O[C@H](CO)[C@@H](O)C2(F)F)c(=O)n1` [gemcitabine] + Cc1nc(Nc2ncc(C(=O)Nc3c(C)cccc3Cl)s2)cc(N2CCN(CCO)CC2)n1 [dasatanib] (first compound 0.002 µM, partner dose 0.02 µM) came in with a cell count of 58.3%. Same read-out and setting: the same measure for `CC(=O)O[C@@]12CO[C@@H]1C[C@H](O)[C@@]1(C)C(=O)[C@H](O)C3=C(C)[C@@H](OC(=O)[C@H](O)[C@@H](NC(=O)OC(C)(C)C)c4ccccc4)C[C@@](O)([C@@H](OC(=O)c4ccccc4)[C@H]21)C3(C)C` [Docetaxel] + Cc1cc(Nc2cc(N3CCN(C)CC3)nc(/C=C/c3ccccc3)n2)n[nH]1 [ENMD2076] (first compound 0.0005 µM, partner dose 0.2 µM): 45.5%; for `CO[C@H]1C[C@@H]2CC[C@@H](C)[C@@](O)(O2)C(=O)C(=O)N2CCCC[C@H]2C(=O)O[C@H]([C@H](C)C[C@@H]2CC[C@@H](OCCO)[C@H](OC)C2)CC(=O)[C@H](C)/C=C(\C)[C@@H](O)[C@@H](OC)C(=O)[C@H](C)C[C@H](C)/C=C/C=C/C=C/1C` [everolimus] + NCC(=O)Nc1ccc(-n2nc(C(F)(F)F)cc2-c2ccc3c(ccc4ccccc43)c2)cc1 [OSU03012] (first compound 0.1 µM, partner dose 5 µM): 106%; for `CC(=O)c1c(C)c2cnc(Nc3ccc(N4CCNCC4)cn3)nc2n(C2CCCC2)c1=O` [palbociclib] + Oc1cc(-c2nc(-c3ccccc3)[nH]c2-c2ccncc2)ccc1Cl [L779450] (first compound 0.2 µM, partner dose 1 µM): 75.9%. The same measure, in the same setting: for `Nc1ccn([C@@H]2O[C@H](CO)[C@@H](O)C2(F)F)c(=O)n1` [gemcitabine] + CC1(C)NC(=O)N(c2ccc([N+](=O)[O-])c(C(F)(F)F)c2)C1=O [nilutamide] (first compound 0.002 µM, partner dose 5 µM) the value was 91.6%.
